Test results: patent US8828401B2, “Cytotoxic peptides and antibody drug conjugates thereof” (Pfizer Inc., priority 2011, dated 2014)

Key:
37622A1 NSCLC xenografts = assay: 37622A1 NSCLC patient-derived xenografts with anti-Notch ADCs; format: in vivo, nude (Nu/Nu) female mice; conditions: for tumor volume (mm^3 ± SEM): 10 mg/kg Q4dx4
Description: (§1) Humanized anti-Notch antibodies, hu28 and hu75, and rat-human chimeric anti-Notch antibodies, ch28 and ch75, were conjugated to various linker-payload combinations and tested in 37622A1 non-small cell lung cancer (NSCLC), HCC2429 lung cancer, MDA-MB-468 breast cancer and N87 gastric cancer xenograft models. For each model described below the first dose was given on Day 0. The tumors were measured at least once a week and their volume was calculated with the formula: tumor volume (mm^3)=0.5×(tumor width^2)(tumor length). The mean tumor volumes (±S.E.M.) for each treatment group were calculated having a maximum of 10 animals and a minimum of 6 animals to be included.
The effects of anti-Notch ADCs were examined in immunodeficient mice on the in vivo growth of human tumor xenografts that were established from fragments of freshly resected 37622A1 NSCLC tumors obtained in accordance with appropriate consent procedures (Asterand). The 37622A1 NSCLC patient-derived xenografts were subcutaneously passaged in vivo as fragments from animal to animal in nude (Nu/Nu) female mice. When the tumors reached a volume of 150 to 300 mm^3, they were staged to ensure uniformity of the tumor size among various treatment groups. The 37622A1 NSCLC model was dosed intraveneously four times every four days (Q4dx4) with PBS vehicle, humanized anti-Notch ADCs, control huNeg-8.8 ADCs and cisplatin at the doses provided in Table 11.

N87 gastric xenografts = N87 gastric xenografts with anti-Notch ADCs; format: in vivo, nude (Nu/Nu) female mice; conditions: for tumor volume (mm^3 ± SEM): vc6780 study
Description: as §1
Similar in vivo experiments were performed with the N87 gastric cancer cell line as described above. […] When the tumors reached a volume of 250 to 450 mm^3, the tumors were staged to ensure uniformity of the tumor mass among various treatment groups. The N87 gastric model was dosed intraveneously Q4dx4 with PBS vehicle, humanized anti-Notch ADCs, control huNeg-8.8 ADCs and cisplatin at the doses provided in Tables 16 and 17.

B1: hu28-vc6780 (conjugate)
heavy: EVQLVESGGGLVQPGGSLRLSCAASGFTFRDYGMTWVRQAPGKGLEWVAYISSGSNYIYYAEAVKGRFTISRDNAKNSLYLQMNSLRAEDTAVYYCARRGPFVLDAWGQGTLVTVSS[human IgG1 constant region left out]
light: DIQMTQSPSSLSASVGDRVTITCKASQSINRYLHWYQQKPGKAPKLLIYNANGLQTGVPSRFSGSGSGTDFTLTISSLQPEDFATYYCLQHNTWPDTFGGGTKVEIKRTVAAPSVFIFPPSDEQLKSGTASVVCLLNNFYPREAKVQWKVDNALQSGNSQESVTEQDSKDSTYSLSSTLTLSKADYEKHKVYACEVTHQGLSSPVTKSFNRGEC
- tumor volume (mm^3 ± SEM) (37622A1 NSCLC xenografts; DAY 4): 176 ± 13 mm^3
- tumor volume (mm^3 ± SEM) (37622A1 NSCLC xenografts; DAY 7): 176 ± 19 mm^3
- tumor volume (mm^3 ± SEM) (37622A1 NSCLC xenografts; DAY 11): 122 ± 10 mm^3
- tumor volume (mm^3 ± SEM) (37622A1 NSCLC xenografts; DAY 14): 95 ± 7 mm^3
- tumor volume (mm^3 ± SEM) (37622A1 NSCLC xenografts; DAY 18): 65 ± 6 mm^3
- tumor volume (mm^3 ± SEM) (37622A1 NSCLC xenografts; DAY 21): 56 ± 6 mm^3
- tumor volume (mm^3 ± SEM) (37622A1 NSCLC xenografts; DAY 25): 51 ± 6 mm^3
- tumor volume (mm^3 ± SEM) (37622A1 NSCLC xenografts; DAY 28): 51 ± 8 mm^3
- tumor volume (mm^3 ± SEM) (37622A1 NSCLC xenografts; DAY 32): 72 ± 15 mm^3
- tumor volume (mm^3 ± SEM) (37622A1 NSCLC xenografts; DAY 35): 92 ± 21 mm^3
- tumor volume (mm^3 ± SEM) (37622A1 NSCLC xenografts; DAY 39): 120 ± 31 mm^3
- tumor volume (mm^3 ± SEM) (37622A1 NSCLC xenografts; DAY 42): 151 ± 37 mm^3
- tumor volume (mm^3 ± SEM) (37622A1 NSCLC xenografts; DAY 46): 172 ± 47 mm^3
- tumor volume (mm^3 ± SEM) (37622A1 NSCLC xenografts; DAY 49): 248 ± 62 mm^3
- tumor volume (mm^3 ± SEM) (37622A1 NSCLC xenografts; DAY 53): 339 ± 93 mm^3
- tumor volume (mm^3 ± SEM) (37622A1 NSCLC xenografts; DAY 56): 376 ± 100 mm^3
- tumor volume (mm^3 ± SEM) (37622A1 NSCLC xenografts; DAY 60): 503 ± 138 mm^3
- tumor volume (mm^3 ± SEM) (37622A1 NSCLC xenografts; DAY 63): 604 ± 160 mm^3
- tumor volume (mm^3 ± SEM) (37622A1 NSCLC xenografts; DAY 67): 888 ± 272 mm^3
- tumor volume (mm^3 ± SEM) (37622A1 NSCLC xenografts; DAY 70): 773 ± 235 mm^3
- tumor volume (mm^3 ± SEM) (37622A1 NSCLC xenografts; DAY 74): 881 ± 264 mm^3
- tumor volume (mm^3 ± SEM) (37622A1 NSCLC xenografts; DAY 77): 1029 ± 325 mm^3
- tumor volume (mm^3 ± SEM) (37622A1 NSCLC xenografts; DAY −1): 182 ± 16 mm^3
- effect on growth of 37622A1 NSCLC xenografts (in words) (37622A1 NSCLC xenografts; Q4dx4, doses of Table 11): inhibited growth of 37622A1 NSCLC xenografts
- effect on growth of N87 gastric xenografts (in words) (N87 gastric xenografts; humanized ADCs, Q4dx4, doses of Tables 16 and 17): inhibited growth of N87 gastric xenografts in a dose-dependent manner
- tumor volume (mm^3 ± SEM) (N87 gastric xenografts; Dose 1 mg/kg Q4dx4 iv, DAY 0): 348 ± 13 mm^3
- tumor volume (mm^3 ± SEM) (N87 gastric xenografts; Dose 1 mg/kg Q4dx4 iv, DAY 4): 560 ± 26 mm^3
- tumor volume (mm^3 ± SEM) (N87 gastric xenografts; Dose 1 mg/kg Q4dx4 iv, DAY 8): 592 ± 44 mm^3
- tumor volume (mm^3 ± SEM) (N87 gastric xenografts; Dose 1 mg/kg Q4dx4 iv, DAY 11): 617 ± 48 mm^3
- tumor volume (mm^3 ± SEM) (N87 gastric xenografts; Dose 1 mg/kg Q4dx4 iv, DAY 14): 782 ± 60 mm^3
- tumor volume (mm^3 ± SEM) (N87 gastric xenografts; Dose 1 mg/kg Q4dx4 iv, DAY 18): 797 ± 88 mm^3
- tumor volume (mm^3 ± SEM) (N87 gastric xenografts; Dose 1 mg/kg Q4dx4 iv, DAY 21): 839 ± 93 mm^3
- tumor volume (mm^3 ± SEM) (N87 gastric xenografts; Dose 1 mg/kg Q4dx4 iv, DAY 25): 878 ± 105 mm^3
- tumor volume (mm^3 ± SEM) (N87 gastric xenografts; Dose 1 mg/kg Q4dx4 iv, DAY 28): 904 ± 123 mm^3
- tumor volume (mm^3 ± SEM) (N87 gastric xenografts; Dose 1 mg/kg Q4dx4 iv, DAY 33): 1043 ± 152 mm^3
- tumor volume (mm^3 ± SEM) (N87 gastric xenografts; Dose 1 mg/kg Q4dx4 iv, DAY 36): 1108 ± 185 mm^3
- tumor volume (mm^3 ± SEM) (N87 gastric xenografts; Dose 1 mg/kg Q4dx4 iv, DAY 39): 1204 ± 209 mm^3
- tumor volume (mm^3 ± SEM) (N87 gastric xenografts; Dose 3 mg/kg Q4dx4 iv, DAY 0): 349 ± 10 mm^3
- tumor volume (mm^3 ± SEM) (N87 gastric xenografts; Dose 3 mg/kg Q4dx4 iv, DAY 4): 552 ± 24 mm^3
- tumor volume (mm^3 ± SEM) (N87 gastric xenografts; Dose 3 mg/kg Q4dx4 iv, DAY 8): 545 ± 37 mm^3
- tumor volume (mm^3 ± SEM) (N87 gastric xenografts; Dose 3 mg/kg Q4dx4 iv, DAY 11): 511 ± 25 mm^3
- tumor volume (mm^3 ± SEM) (N87 gastric xenografts; Dose 3 mg/kg Q4dx4 iv, DAY 14): 564 ± 29 mm^3
- tumor volume (mm^3 ± SEM) (N87 gastric xenografts; Dose 3 mg/kg Q4dx4 iv, DAY 18): 479 ± 29 mm^3
- tumor volume (mm^3 ± SEM) (N87 gastric xenografts; Dose 3 mg/kg Q4dx4 iv, DAY 21): 499 ± 34 mm^3
- tumor volume (mm^3 ± SEM) (N87 gastric xenografts; Dose 3 mg/kg Q4dx4 iv, DAY 25): 588 ± 40 mm^3
- tumor volume (mm^3 ± SEM) (N87 gastric xenografts; Dose 3 mg/kg Q4dx4 iv, DAY 28): 672 ± 48 mm^3
- tumor volume (mm^3 ± SEM) (N87 gastric xenografts; Dose 3 mg/kg Q4dx4 iv, DAY 33): 786 ± 65 mm^3
- tumor volume (mm^3 ± SEM) (N87 gastric xenografts; Dose 3 mg/kg Q4dx4 iv, DAY 36): 827 ± 69 mm^3
- tumor volume (mm^3 ± SEM) (N87 gastric xenografts; Dose 3 mg/kg Q4dx4 iv, DAY 39): 847 ± 77 mm^3
- tumor volume (mm^3 ± SEM) (N87 gastric xenografts; Dose 3 mg/kg Q4dx4 iv, DAY 42): 959 ± 81 mm^3
- tumor volume (mm^3 ± SEM) (N87 gastric xenografts; Dose 3 mg/kg Q4dx4 iv, DAY 46): 1018 ± 94 mm^3
- tumor volume (mm^3 ± SEM) (N87 gastric xenografts; Dose 3 mg/kg Q4dx4 iv, DAY 50): 1111 ± 95 mm^3
- tumor volume (mm^3 ± SEM) (N87 gastric xenografts; Dose 3 mg/kg Q4dx4 iv, DAY 56): 1279 ± 108 mm^3
- tumor volume (mm^3 ± SEM) (N87 gastric xenografts; Dose 3 mg/kg Q4dx4 iv, DAY 63): 1368 ± 133 mm^3
- tumor volume (mm^3 ± SEM) (N87 gastric xenografts; Dose 3 mg/kg Q4dx4 iv, DAY 70): 1483 ± 154 mm^3
- tumor volume (mm^3 ± SEM) (N87 gastric xenografts; Dose 10 mg/kg Q4dx4 iv, DAY 0): 350 ± 14 mm^3
- tumor volume (mm^3 ± SEM) (N87 gastric xenografts; Dose 10 mg/kg Q4dx4 iv, DAY 4): 434 ± 24 mm^3
- tumor volume (mm^3 ± SEM) (N87 gastric xenografts; Dose 10 mg/kg Q4dx4 iv, DAY 8): 379 ± 12 mm^3
- tumor volume (mm^3 ± SEM) (N87 gastric xenografts; Dose 10 mg/kg Q4dx4 iv, DAY 11): 315 ± 18 mm^3
- tumor volume (mm^3 ± SEM) (N87 gastric xenografts; Dose 10 mg/kg Q4dx4 iv, DAY 14): 292 ± 24 mm^3
- tumor volume (mm^3 ± SEM) (N87 gastric xenografts; Dose 10 mg/kg Q4dx4 iv, DAY 18): 199 ± 18 mm^3
- tumor volume (mm^3 ± SEM) (N87 gastric xenografts; Dose 10 mg/kg Q4dx4 iv, DAY 21): 194 ± 20 mm^3
- tumor volume (mm^3 ± SEM) (N87 gastric xenografts; Dose 10 mg/kg Q4dx4 iv, DAY 25): 181 ± 21 mm^3
- tumor volume (mm^3 ± SEM) (N87 gastric xenografts; Dose 10 mg/kg Q4dx4 iv, DAY 28): 204 ± 16 mm^3
- tumor volume (mm^3 ± SEM) (N87 gastric xenografts; Dose 10 mg/kg Q4dx4 iv, DAY 33): 196 ± 27 mm^3
- tumor volume (mm^3 ± SEM) (N87 gastric xenografts; Dose 10 mg/kg Q4dx4 iv, DAY 36): 189 ± 37 mm^3
- tumor volume (mm^3 ± SEM) (N87 gastric xenografts; Dose 10 mg/kg Q4dx4 iv, DAY 39): 228 ± 44 mm^3
- tumor volume (mm^3 ± SEM) (N87 gastric xenografts; Dose 10 mg/kg Q4dx4 iv, DAY 42): 257 ± 60 mm^3
- tumor volume (mm^3 ± SEM) (N87 gastric xenografts; Dose 10 mg/kg Q4dx4 iv, DAY 46): 253 ± 59 mm^3
- tumor volume (mm^3 ± SEM) (N87 gastric xenografts; Dose 10 mg/kg Q4dx4 iv, DAY 50): 253 ± 67 mm^3
- tumor volume (mm^3 ± SEM) (N87 gastric xenografts; Dose 10 mg/kg Q4dx4 iv, DAY 56): 298 ± 85 mm^3
- tumor volume (mm^3 ± SEM) (N87 gastric xenografts; Dose 10 mg/kg Q4dx4 iv, DAY 63): 345 ± 93 mm^3
- tumor volume (mm^3 ± SEM) (N87 gastric xenografts; Dose 10 mg/kg Q4dx4 iv, DAY 70): 376 ± 117 mm^3
- tumor volume (mm^3 ± SEM) (N87 gastric xenografts; Dose 10 mg/kg Q4dx4 iv, DAY 77): 388 ± 123 mm^3
